Test results published in the supplement of paper PMC4967469.
A lower IC50 marks a more sensitive line; a limit (>, <) means that the fit lies beyond the doses tested. AUC sums up the same curve from the lowest dose to the 256-fold higher top dose: 1 means no effect, lower means more sensitive. An inferred top dose is not printed in the source and was worked back from the curve model.

What was measured:
Assay in all cases: Viability of human cancer cell lines after 72 h of drug (GDSC screen)
[1] = compound: CCc1cc(Nc2nccc(-c3c(-c4ccc(OC)c(C(=O)Nc5c(F)cccc5F)c4)nc4ccccn34)n2)c(OC)cc1N1CCC(N2CCN(S(C)(=O)=O)CC2)CC1 [GSK-1904529A]; details: top dose 1.024 µM; top dose inferred
Protocol: (§1)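 Human cancer cell lines in 384-well plates, medium with 10% serum, drug for 72 h over a 256-fold dose range (nine 2-fold or five 4-fold steps up to the top dose). Adherent lines were fixed and stained with the nucleic acid dye Syto60, suspension lines read with resazurin; signal relative to control wells, capped at 0 and 100%. One two-parameter sigmoid per drug and line, fitted in a mixed model over all curves with the slope shared within a line.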

[2] = compound: Cn1cncc1[C@@](N)(c1ccc(Cl)cc1)c1ccc2c(c1)c(-c1cccc(Cl)c1)cc(=O)n2C [Tipifarnib]; details: top dose 16 µM; top dose inferred
Protocol: as §1

[3] = compound: COc1ccccc1S(=O)(=O)Nc1ccc2c(c1)CN(C)C(=O)N2 [PFI-1]; details: top dose 10 µM; top dose inferred
Protocol: as §1

[4] = compound: COc1cc(C)c(Sc2cnc(NC(=O)c3ccc(CNC(C)C(C)(C)C)cc3)s2)cc1C(=O)N1CCN(C(C)=O)CC1 [BMS-509744]; details: top dose 10.24 µM; top dose inferred
Protocol: as §1

[5] = compound: CCN1CCN(Cc2ccc(NC(=O)c3ccc(C)c(Oc4ccnc5[nH]ccc45)c3)cc2C(F)(F)F)CC1 [NG-25]; details: top dose 10.24 µM; top dose inferred
Protocol: as §1

| Cell Line | AUC [1] | IC50 [1] [µM] | AUC [2] | IC50 [2] [µM] | AUC [3] | IC50 [3] [µM] | AUC [4] | IC50 [4] [µM] | AUC [5] | IC50 [5] [µM] |
| --- | --- | --- | --- | --- | --- | --- | --- | --- | --- | --- |
| NCI-H209 (small cell lung carcinoma, suspension) | 0.975 | > 1.02 | 0.817 | 9.75 | 0.918 | > 10 | 0.978 | > 10.2 | 0.885 | > 10.2 |
| TE-10 (oesophagus, adherent) | 0.963 | > 1.02 | 0.457 | 0.767 | 0.843 | 6.85 | 0.897 | > 10.2 | 0.952 | > 10.2 |
| ALL-PO (lymphoblastic leukaemia, suspension) | 0.951 | > 1.02 | 0.393 | 0.499 | 0.972 | > 10 | 0.801 | 5.32 | 0.292 | 0.16 |
| HD-MY-Z (Hodgkin lymphoma, adherent) | 0.985 | > 1.02 | 0.944 | > 16 | 0.862 | 8.65 | 0.886 | > 10.2 | 0.806 | 5.26 |
| HSC-39 (stomach, suspension) | 0.991 | > 1.02 | 0.991 | > 16 | 0.888 | 8.6 | 0.937 | > 10.2 | 0.991 | > 10.2 |
| ES7 (Ewing sarcoma, adherent) | 0.915 | > 1.02 | 0.597 | 1.86 | 0.858 | 8.54 | 0.92 | > 10.2 | 0.73 | 2.96 |
| CTV-1 (acute myeloid leukaemia, suspension) | 0.982 | > 1.02 | 0.689 | 2.98 | 0.951 | > 10 | 0.847 | 5.4 | 0.214 | 0.117 |
| H9 (lymphoid neoplasm, suspension) | 0.989 | > 1.02 | 0.696 | 3.15 | 0.783 | 3.44 | 0.929 | > 10.2 | 0.866 | 6.58 |
| GI-1 (glioma, adherent) | 0.987 | > 1.02 | 0.705 | 3.68 | 0.749 | 3.13 | 0.892 | > 10.2 | 0.833 | 6.21 |
| LS-123 (large intestine, adherent) | 0.922 | > 1.02 | 0.573 | 1.69 | 0.935 | > 10 | 0.925 | > 10.2 | 0.958 | > 10.2 |
| GR-ST (lymphoblastic leukaemia, suspension) | 0.975 | > 1.02 | 0.644 | 2.72 | 0.696 | 2.51 | 0.904 | > 10.2 | 0.801 | 6.26 |
| KY821 (leukaemia, suspension) | 0.992 | > 1.02 | 0.979 | > 16 | 0.904 | > 10 | 0.918 | > 10.2 | 0.956 | > 10.2 |
| NCI-H1836 (small cell lung carcinoma, suspension) | 0.988 | > 1.02 | 0.889 | > 16 | 0.943 | > 10 | 0.963 | > 10.2 | 0.984 | > 10.2 |
| ML-2 (acute myeloid leukaemia, suspension) | 0.988 | > 1.02 | 0.184 | 0.131 | 0.926 | > 10 | 0.788 | 3.96 | 0.953 | > 10.2 |
| OCI-M1 (acute myeloid leukaemia, suspension) | 0.995 | > 1.02 | 0.855 | 8.26 | 0.853 | 5.11 | 0.985 | > 10.2 | 0.841 | 4.8 |
| JAR (urogenital system, adherent) | 0.987 | > 1.02 | 0.971 | > 16 | 0.891 | > 10 | 0.925 | > 10.2 | 0.974 | > 10.2 |
| no-11 (glioma, adherent) | 0.937 | > 1.02 | 0.707 | 4.48 | 0.926 | > 10 | 0.861 | > 10.2 | 0.884 | > 10.2 |
| MPP-89 (mesothelioma, adherent) | 0.978 | > 1.02 | 0.835 | 15.4 | 0.912 | > 10 | 0.878 | > 10.2 | 0.803 | 7.02 |
| PL-21 (acute myeloid leukaemia, suspension) | 0.982 | > 1.02 | 0.694 | 3.86 | 0.88 | > 10 | 0.74 | 3.54 | 0.859 | > 10.2 |
| KOPN-8 (B-cell leukaemia, suspension) | 0.99 | > 1.02 | 0.767 | 5.16 | 0.878 | 7.73 | 0.929 | > 10.2 | 0.756 | 3.06 |
| EVSA-T (breast, adherent) | 0.991 | > 1.02 | 0.853 | 9.79 | 0.873 | 7.3 | 0.94 | > 10.2 | 0.697 | 2.09 |
| NCI-H716 (large intestine, suspension) | 0.981 | > 1.02 | 0.938 | > 16 | 0.794 | 5.97 | 0.943 | > 10.2 | 0.527 | 0.775 |
| DG-75 (Burkitt lymphoma, suspension) | 0.987 | > 1.02 | 0.947 | > 16 | 0.622 | 1.36 | 0.915 | > 10.2 | 0.859 | 8.7 |
| D-502MG (glioma, adherent) | 0.917 | > 1.02 | 0.926 | > 16 | 0.911 | > 10 | 0.971 | > 10.2 | 0.846 | > 10.2 |
